Some of the results follow.
What was measured:
Test in all cases: glycan array binding signal (z-score within array); higher = stronger binding
Details in all cases: glycan notation: IUPAC condensed, linker removed
[1] = target: GlcNAc(b1-3)Gal(b1-4)GlcNAc(b1-3)Gal(b1-4)GlcNAc(b1-3)Gal(b1-4)GlcNAc(b1-3)Gal(b1-4)GlcNAc(b1-2)[GlcNAc(b1-3)Gal(b1-4)GlcNAc(b1-3)Gal(b1-4)GlcNAc(b1-3)Gal(b1-4)GlcNAc(b1-3)Gal(b1-4)GlcNAc(b1-6)]Man(a1-6)[GlcNAc(b1-3)Gal(b1-4)GlcNAc(b1-3)Gal(b1-4)GlcNAc(b1-3)Gal(b1-4)GlcNAc(b1-3)Gal(b1-4)GlcNAc(b1-2)Man(a1-3)]Man(b1-4)GlcNAc(b1-4)[Fuc(a1-6)]GlcNAc
Method in brief: (§1)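 The Consortium for Functional Glycomics database supplied 3228 glycan arrays, of which those lacking an available protein sequence were dropped. The binding signal, a within-array Z-score, was averaged across arrays of the same protein sequence and across linkers. Negative scores can be read as non-binding.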

[2] = target: GlcNAc(b1-3)Gal(b1-4)GlcNAc(b1-3)Gal(b1-4)GlcNAc(b1-3)GalNAc
Method in brief: as §1

[3] = target: GlcNAc(b1-3)Gal(b1-4)GlcNAc(b1-3)GalNAc
Method in brief: as §1

[4] = target: GlcNAc(b1-3)Gal(b1-4)GlcNAc(b1-3)[GlcNAc(b1-3)Gal(b1-4)GlcNAc(b1-3)]GalNAc
Method in brief: as §1

[5] = target: GlcNAc(b1-3)Gal(b1-4)GlcNAc(b1-6)[Gal(b1-3)]GalNAc
Method in brief: as §1

[6] = target: GlcNAc(b1-3)Gal(b1-4)GlcNAc(b1-6)[GlcNAc(b1-3)Gal(b1-3)]GalNAc
Method in brief: as §1

[7] = target: GlcNAc(b1-3)Gal(b1-4)GlcNAc(b1-6)[GlcNAc(b1-3)]Gal(b1-4)GlcNAc
Method in brief: as §1

[8] = target: GlcNAc(b1-3)GalNAc
Method in brief: as §1

[9] = target: GlcNAc(b1-3)Man
Method in brief: as §1

[10] = target: GlcNAc(b1-3)[GlcNAc(b1-4)][GlcNAc(b1-6)]GlcNAc
Method in brief: as §1

[11] = target: GlcNAc(b1-3)[GlcNAc(b1-6)]Gal(b1-4)GlcNAc
Method in brief: as §1

[12] = target: GlcNAc(b1-3)[GlcNAc(b1-6)]GalNAc
Method in brief: as §1

[13] = target: GlcNAc(b1-4)Gal(b1-4)GlcNAc
Method in brief: as §1

[14] = target: GlcNAc(b1-4)GlcNAc
Method in brief: as §1

[15] = target: GlcNAc(b1-4)GlcNAc(b1-4)GlcNAc
Method in brief: as §1

[16] = target: GlcNAc(b1-4)GlcNAc(b1-4)GlcNAc(b1-4)GlcNAc(b1-4)GlcNAc
Method in brief: as §1

[17] = target: GlcNAc(b1-4)GlcNAc(b1-4)GlcNAc(b1-4)GlcNAc(b1-4)GlcNAc(b1-4)GlcNAc
Method in brief: as §1

[18] = target: GlcNAc(b1-4)[GlcNAc(b1-6)]GalNAc
Method in brief: as §1

[19] = target: GlcNAc(b1-6)Gal(b1-4)GlcNAc
Method in brief: as §1

[20] = target: GlcNAc(b1-6)GalNAc
Method in brief: as §1

[21] = target: GlcNAc6S(b1-3)Gal(b1-4)GlcNAc
Method in brief: as §1

[22] = target: Kdn(a2-3)Gal(b1-3)GalNAc
Method in brief: as §1

[23] = target: Kdn(a2-3)Gal(b1-3)GlcNAc
Method in brief: as §1

[24] = target: Kdn(a2-3)Gal(b1-4)Glc
Method in brief: as §1

[25] = target: Kdn(a2-3)Gal(b1-4)GlcNAc
Method in brief: as §1

[26] = target: Kdn(a2-3)Gal(b1-4)[Fuc(a1-3)]GlcNAc
Method in brief: as §1

[27] = target: Kdn(a2-6)Gal(b1-4)GlcNAc
Method in brief: as §1

[28] = target: Man(a1-2)Man(a1-2)Man(a1-3)Man
Method in brief: as §1

[29] = target: Man(a1-2)Man(a1-2)Man(a1-6)[Man(a1-3)]Man
Method in brief: as §1

[30] = target: Man(a1-2)Man(a1-3)Man
Method in brief: as §1

[31] = target: Man(a1-2)Man(a1-3)[Man(a1-2)Man(a1-6)]Man
Method in brief: as §1

[32] = target: Man(a1-2)Man(a1-3)[Man(a1-2)Man(a1-6)]Man(a1-6)[Man(a1-2)Man(a1-2)Man(a1-3)]Man
Method in brief: as §1

[33] = target: Man(a1-2)Man(a1-3)[Man(a1-2)Man(a1-6)]Man(a1-6)[Man(a1-2)Man(a1-2)Man(a1-3)]Man(b1-4)GlcNAc(b1-4)GlcNAc
Method in brief: as §1

[34] = target: Man(a1-2)Man(a1-3)[Man(a1-6)]Man(a1-6)[Man(a1-2)Man(a1-3)]Man(b1-4)GlcNAc(b1-4)GlcNAc
Method in brief: as §1

[35] = target: Man(a1-2)Man(a1-6)[Man(a1-3)]Man(a1-6)[Man(a1-2)Man(a1-2)Man(a1-3)]Man
Method in brief: as §1

[36] = target: Man(a1-2)Man(a1-6)[Man(a1-3)]Man(a1-6)[Man(a1-2)Man(a1-2)Man(a1-3)]Man(b1-4)GlcNAc(b1-4)GlcNAc
Method in brief: as §1

[37] = target: Man(a1-3)[Man(a1-6)]Man
Method in brief: as §1

[38] = target: Man(a1-3)[Man(a1-6)]Man(a1-6)[Man(a1-2)Man(a1-3)]Man(b1-4)GlcNAc(b1-4)GlcNAc
Method in brief: as §1

[39] = target: Man(a1-3)[Man(a1-6)]Man(a1-6)[Man(a1-3)]Man
Method in brief: as §1

[40] = target: Man(a1-3)[Man(a1-6)]Man(a1-6)[Man(a1-3)]Man(b1-4)GlcNAc(b1-4)GlcNAc
Method in brief: as §1

[41] = target: Man(a1-3)[Man(a1-6)]Man(b1-4)GlcNAc(b1-4)GlcNAc
Method in brief: as §1

[42] = target: Man(a1-3)[Man(a1-6)]Man(b1-4)GlcNAc(b1-4)[Fuc(a1-6)]GlcNAc
Method in brief: as §1

[43] = target: Man(a1-6)Man
Method in brief: as §1

[44] = target: Man(b1-4)GlcNAc
Method in brief: as §1

[45] = target: MurNAc(b1-4)GlcNAc
Method in brief: as §1

B1: LICBM33A (Lactococcus lactis), Q9CE94 (protein)
chain: MKKLLTGLLVAAGLLSVSLLIKTDTVSAHGYVQSPPARGYQGQLDSQSLGWTAAFNIYGNVISNPQSLEAPKGFPECGPADGRIASANGGLGQIGDFVLDNQTSSRWKKTSISTGSNIFTWKYTAPHKTTKWHYYMTKTGWDQNAPLKHSELELIGTINHDGSPATNNLSHTINIPTDRSGYHIVLAVWDVADTSNAFYNVIDINVNNKNASSQVFGPFL
glycan array binding signal (z-score) [1]: -0.382
glycan array binding signal (z-score) [2]: -0.342
glycan array binding signal (z-score) [3]: -0.499
glycan array binding signal (z-score) [4]: -0.2
glycan array binding signal (z-score) [5]: 1.98
glycan array binding signal (z-score) [6]: -0.463
glycan array binding signal (z-score) [7]: -0.551
glycan array binding signal (z-score) [8]: -0.659
glycan array binding signal (z-score) [9]: 0.023
glycan array binding signal (z-score) [10]: -0.619
glycan array binding signal (z-score) [11]: -0.565
glycan array binding signal (z-score) [12]: -0.909
glycan array binding signal (z-score) [13]: -0.614
glycan array binding signal (z-score) [14]: 0.592
glycan array binding signal (z-score) [15]: 0.407
glycan array binding signal (z-score) [16]: -0.337
glycan array binding signal (z-score) [17]: 0.08
glycan array binding signal (z-score) [18]: -0.068
glycan array binding signal (z-score) [19]: -0.043
glycan array binding signal (z-score) [20]: 0.954
glycan array binding signal (z-score) [21]: 0.72
glycan array binding signal (z-score) [22]: 0.04
glycan array binding signal (z-score) [23]: -0.522
glycan array binding signal (z-score) [24]: 0.82
glycan array binding signal (z-score) [25]: -0.667
glycan array binding signal (z-score) [26]: 0.288
glycan array binding signal (z-score) [27]: 2.03
glycan array binding signal (z-score) [28]: -0.369
glycan array binding signal (z-score) [29]: -0.156
glycan array binding signal (z-score) [30]: -0.647
glycan array binding signal (z-score) [31]: -0.559
glycan array binding signal (z-score) [32]: -0.427
glycan array binding signal (z-score) [33]: 1.98
glycan array binding signal (z-score) [34]: -0.219
glycan array binding signal (z-score) [35]: -0.487
glycan array binding signal (z-score) [36]: 0.044
glycan array binding signal (z-score) [37]: 0.32
glycan array binding signal (z-score) [38]: 1.78
glycan array binding signal (z-score) [39]: 0.027
glycan array binding signal (z-score) [40]: -0.43
glycan array binding signal (z-score) [41]: 0.527
glycan array binding signal (z-score) [42]: -0.355
glycan array binding signal (z-score) [43]: -0.318
glycan array binding signal (z-score) [44]: -0.147
glycan array binding signal (z-score) [45]: 0.591

From the supplement of paper PMC8728848
